# The other results are listed elsewhere or left out.
# B1: PX14343B-bfa-546-20-546 (Bacteroides fragilis) (protein)
# chain: CDLERYPLTDLSEETFWNSESNAELALTSLYRGSLTDGVEYNPSDWWSYHGMIMMEHLSDNAFDRRGENNPFFKISSGNLTADNAFIKRYWETSYKRIGYCNRFLVGIQNSSESEKKTRMIAEARFLRATQYFYLASYFKNVPLVENVLTGEEANNVTKTSQADILKWCVTEFTAAAADLPRFSAIPAGEAGRACKQAALAFLGRTCMLQKDWKSGAKAFHDIMELGDNAINANYQELFYPSTGTSNKENIFYIQYLENYLGTGLPQHALSAKDGGWSLVNPAADLYESYEFKDGTPFSYDDPRYDPSNLGKDRDPRLDYTIYYNGAIFMGTEYKMSPDYSAAKKEKLDYTSEASRTGFMMRKYFEESTPINDVQSANGLTPVIRYAEVLLGYLECLVEDNQTITQGILDETINAVRGRASVNMPPVTEVTPAKLREIVRHERRIELAMEGIRYWDIMRWGIAHEVLSQKIWGAPYPGSTQYATTTKEVDPTGNYRWYVGKRAFRNPTDYTWPIPQSEQNINPNLRD
# Key:
# Experiment in all cases: glycan array binding signal (z-score within array); higher = stronger binding
# Conditions in all cases: glycan notation: IUPAC condensed, linker removed
# [1] = molecular target: Gal(b1-3)GlcNAc(b1-3)Gal(b1-4)GlcNAc(b1-2)[Gal(b1-3)GlcNAc(b1-3)Gal(b1-4)GlcNAc(b1-6)]Man(a1-6)[Gal(b1-3)GlcNAc(b1-3)Gal(b1-4)GlcNAc(b1-2)Man(a1-3)]Man(b1-4)GlcNAc(b1-4)[Fuc(a1-6)]GlcNAc
# Method in brief: (§1)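 Negative Z-scores can be read as non-binding. The Z-score is calculated within each array and then averaged across arrays of one protein sequence at different concentrations or buffers and across linkers. Arrays, 3228 in all, were curated from the Consortium for Functional Glycomics database and kept only where the protein sequence was available.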
# [2] = molecular target: Gal(b1-3)GlcNAc(b1-3)Gal(b1-4)GlcNAc(b1-3)Gal(b1-4)GlcNAc(b1-2)[Gal(b1-3)GlcNAc(b1-3)Gal(b1-4)GlcNAc(b1-3)Gal(b1-4)GlcNAc(b1-6)]Man(a1-6)[Gal(b1-3)GlcNAc(b1-3)Gal(b1-4)GlcNAc(b1-3)Gal(b1-4)GlcNAc(b1-2)Man(a1-3)]Man(b1-4)GlcNAc(b1-4)[Fuc(a1-6)]GlcNAc
# Method in brief: as §1
# [3] = molecular target: Gal(b1-3)GlcNAc(b1-3)Gal(b1-4)GlcNAc(b1-6)[Gal(b1-3)GlcNAc(b1-3)]Gal(b1-4)Glc
# Method in brief: as §1
# [4] = molecular target: Gal(b1-3)GlcNAc(b1-3)Gal(b1-4)[Fuc(a1-3)]GlcNAc
# Method in brief: as §1
# [5] = molecular target: Gal(b1-3)GlcNAc(b1-3)Gal(b1-4)[Fuc(a1-3)]GlcNAc(b1-6)[Gal(b1-3)GlcNAc(b1-3)]Gal(b1-4)Glc
# Method in brief: as §1
# [6] = molecular target: Gal(b1-3)GlcNAc(b1-3)GalNAc
# Method in brief: as §1
# [7] = molecular target: Gal(b1-3)GlcNAc(b1-6)Gal(b1-4)GlcNAc
# Method in brief: as §1
# [8] = molecular target: Gal(b1-3)GlcNAc(b1-6)GalNAc
# Method in brief: as §1
# [9] = molecular target: Gal(b1-3)GlcNAc(b1-6)[Gal(b1-3)]GalNAc
# Method in brief: as §1
# [10] = molecular target: Gal(b1-3)GlcNAc6S
# Method in brief: as §1
# [11] = molecular target: Gal(b1-3)[Fuc(a1-4)]GlcNAc
# Method in brief: as §1
# [12] = molecular target: Gal(b1-3)[Fuc(a1-4)]GlcNAc(b1-2)Man
# Method in brief: as §1
# [13] = molecular target: Gal(b1-3)[Fuc(a1-4)]GlcNAc(b1-2)Man(a1-3)[Gal(b1-3)[Fuc(a1-4)]GlcNAc(b1-2)Man(a1-6)]Man(b1-4)GlcNAc(b1-4)[Fuc(a1-6)]GlcNAc
# Method in brief: as §1
# [14] = molecular target: Gal(b1-3)[Fuc(a1-4)]GlcNAc(b1-3)Gal(b1-3)[Fuc(a1-4)]GlcNAc
# Method in brief: as §1
# [15] = molecular target: Gal(b1-3)[Fuc(a1-4)]GlcNAc(b1-3)Gal(b1-4)[Fuc(a1-3)]GlcNAc
# Method in brief: as §1
# [16] = molecular target: Gal(b1-3)[Fuc(a1-4)]GlcNAc(b1-6)GalNAc
# Method in brief: as §1
# [17] = molecular target: Gal(b1-3)[GlcNAc(b1-6)]GalNAc
# Method in brief: as §1
# [18] = molecular target: Gal(b1-3)[Neu5Ac(a2-6)]GalNAc
# Method in brief: as §1
# [19] = molecular target: Gal(b1-3)[Neu5Ac(a2-6)]GlcNAc(b1-4)Gal(b1-4)Glc
# Method in brief: as §1
# [20] = molecular target: Gal(b1-3)[Neu5Ac(b2-6)]GalNAc
# Method in brief: as §1
# [21] = molecular target: Gal(b1-4)Gal
# Method in brief: as §1
# [22] = molecular target: Gal(b1-4)GalNAc(a1-3)[Fuc(a1-2)]Gal(b1-4)GlcNAc
# Method in brief: as §1
# [23] = molecular target: Gal(b1-4)GalNAc(b1-3)[Fuc(a1-2)]Gal(b1-4)GlcNAc
# Method in brief: as §1
# [24] = molecular target: Gal(b1-4)Glc
# Method in brief: as §1
# [25] = molecular target: Gal(b1-4)Glc6S
# Method in brief: as §1
# [26] = molecular target: Gal(b1-4)GlcNAc
# Method in brief: as §1
# [27] = molecular target: Gal(b1-4)GlcNAc(a1-6)Gal(b1-4)GlcNAc
# Method in brief: as §1
# [28] = molecular target: Gal(b1-4)GlcNAc(b1-2)Man
# Method in brief: as §1
# [29] = molecular target: Gal(b1-4)GlcNAc(b1-2)Man(a1-3)Man(b1-4)GlcNAc(b1-4)GlcNAc
# Method in brief: as §1
# [30] = molecular target: Gal(b1-4)GlcNAc(b1-2)Man(a1-3)[Gal(b1-4)GlcNAc(b1-2)Man(a1-6)]Man(b1-4)GlcNAc(b1-4)GlcNAc
# Method in brief: as §1
# [31] = molecular target: Gal(b1-4)GlcNAc(b1-2)Man(a1-3)[Gal(b1-4)GlcNAc(b1-2)Man(a1-6)]Man(b1-4)GlcNAc(b1-4)[Fuc(a1-6)]GlcNAc
# Method in brief: as §1
# [32] = molecular target: Gal(b1-4)GlcNAc(b1-2)Man(a1-3)[Gal(b1-4)GlcNAc(b1-2)Man(a1-6)][Gal(b1-4)GlcNAc(b1-4)]Man(b1-4)GlcNAc(b1-4)[Fuc(a1-6)]GlcNAc
# Method in brief: as §1
# [33] = molecular target: Gal(b1-4)GlcNAc(b1-2)Man(a1-3)[Gal(b1-4)GlcNAc(b1-2)Man(a1-6)][GlcNAc(b1-4)]Man(b1-4)GlcNAc(b1-4)[Fuc(a1-6)]GlcNAc
# Method in brief: as §1
# [34] = molecular target: Gal(b1-4)GlcNAc(b1-2)Man(a1-3)[GlcNAc(b1-2)Man(a1-6)]Man(b1-4)GlcNAc(b1-4)GlcNAc
# Method in brief: as §1
# [35] = molecular target: Gal(b1-4)GlcNAc(b1-2)Man(a1-3)[GlcNAc(b1-4)][Gal(b1-4)GlcNAc(b1-2)Man(a1-6)]Man(b1-4)GlcNAc(b1-4)GlcNAc
# Method in brief: as §1
# [36] = molecular target: Gal(b1-4)GlcNAc(b1-2)Man(a1-3)[Man(a1-6)]Man(b1-4)GlcNAc(b1-4)GlcNAc
# Method in brief: as §1
# [37] = molecular target: Gal(b1-4)GlcNAc(b1-2)Man(a1-6)Man(b1-4)GlcNAc(b1-4)GlcNAc
# Method in brief: as §1
# [38] = molecular target: Gal(b1-4)GlcNAc(b1-2)Man(a1-6)[GlcNAc(b1-2)Man(a1-3)]Man(b1-4)GlcNAc(b1-4)GlcNAc
# Method in brief: as §1
binder,measurement,setting,value
B1,glycan array binding signal (z-score),[1],-0.111
same,glycan array binding signal (z-score),[2],-0.113
same,glycan array binding signal (z-score),[3],-0.093
same,glycan array binding signal (z-score),[4],-0.124
same,glycan array binding signal (z-score),[5],-0.131
same,glycan array binding signal (z-score),[6],-0.12
same,glycan array binding signal (z-score),[7],-0.115
same,glycan array binding signal (z-score),[8],-0.123
same,glycan array binding signal (z-score),[9],-0.108
same,glycan array binding signal (z-score),[10],-0.123
same,glycan array binding signal (z-score),[11],-0.115
same,glycan array binding signal (z-score),[12],-0.115
same,glycan array binding signal (z-score),[13],-0.104
same,glycan array binding signal (z-score),[14],-0.123
same,glycan array binding signal (z-score),[15],-0.11
same,glycan array binding signal (z-score),[16],-0.109
same,glycan array binding signal (z-score),[17],-0.12
same,glycan array binding signal (z-score),[18],-0.121
same,glycan array binding signal (z-score),[19],-0.119
same,glycan array binding signal (z-score),[20],-0.119
same,glycan array binding signal (z-score),[21],-0.114
same,glycan array binding signal (z-score),[22],-0.119
same,glycan array binding signal (z-score),[23],-0.137
same,glycan array binding signal (z-score),[24],-0.121
same,glycan array binding signal (z-score),[25],-0.113
same,glycan array binding signal (z-score),[26],-0.128
same,glycan array binding signal (z-score),[27],-0.116
same,glycan array binding signal (z-score),[28],-0.112
same,glycan array binding signal (z-score),[29],-0.117
same,glycan array binding signal (z-score),[30],-0.117
same,glycan array binding signal (z-score),[31],-0.125
same,glycan array binding signal (z-score),[32],-0.113
same,glycan array binding signal (z-score),[33],-0.117
same,glycan array binding signal (z-score),[34],-0.128
same,glycan array binding signal (z-score),[35],-0.122
same,glycan array binding signal (z-score),[36],-0.12
same,glycan array binding signal (z-score),[37],-0.118
same,glycan array binding signal (z-score),[38],-0.125
